Results published in PubChem BioAssay AID1963576 (National Center for Advancing Translational Sciences (NCATS), 2024).
Hit rate of the full screen: of about 46,000 compounds, about 60 (0.1%) were called active. About 3% were inconclusive and are not listed. The call rests on the fitted dose curve; in most records, active means well fitted inhibition curve with a large enough effect; inconclusive means small, poorly fitted or top-dose-only effect; inactive means no such curve, though single readings can be large or run the other way. The list shows a part of the results.

Experiment: Primary qHTS assay for Inhibitors of ovarian cancer metastasis using an organotypic tumor microenvironment (TME) model. Further: nearly all actives have a fitted effect of over 65% in size.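 On activity change, negative = inhibition: plate controls were DMSO wells for no effect and tomatine positive control wells for full effect.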
Settings: SKOV3ip1-GFP adhesion/invasion on 3D omental model, fluorescence; series mostly up to 45.8 µM; activity change, negative = inhibition: at the top concentration
How it was run: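 Primary human omental fibroblast/mesothelial 3D culture pre-formed 48 h. SKOV3ip1-GFP cells added with compounds (0.36-46 umol/L), incubated 2 h RT/16 h 37 C, fixed; GFP cells quantified at 488/509 nm.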

SMILES	activity change, negative = inhibition	outcome
CCOC(=O)c1cnc2ccccc2c1NCCc1ccc(OC)c(OC)c1	inactive: 2.67%	–
COc1ccc(CNC(=O)c2cnc3sc(N4CCCCCC4)nn3c2=O)cc1	inactive: 6.33%	–
CCN1c2ccccc2-c2nc(SCC(=O)NCc3ccc(C)cc3)ncc2S1(=O)=O	inactive: 4.93%	–
CCOC(=O)c1ccc(NC(=O)Cn2cc(C(=O)c3ccc(CC)cc3)c(=O)c3ccc(C)nc32)cc1	–	inactive
CCOc1ccc(-c2nc(Cn3c(=O)cc(-c4ccccc4)c4c(C)nn(C)c43)c(C)o2)cc1	inactive: -8.44%	–
CC1CCC(C(=O)N(c2cc(C#CC(C)(C)C)sc2C(=O)O)C2CCC(O)CC2)CC1 (stereo not given)	inactive: -3%	–
CCOc1ccc(NC(=O)CN(c2ccc(CC)cc2)S(=O)(=O)c2c(C)noc2C)cc1	inactive: -4.17%	–
Cc1ccc(CNC(=O)Cn2c(=O)cc(C(F)(F)F)c3c(C)nn(C)c32)cc1	inactive: 3.29%	–
COC(=O)C1=C(c2ccccc2)c2ccccc2S(=O)(=O)N1CC(=O)Nc1ccc(F)c(F)c1	inactive: 8%	–
Cc1sc2ncn(CC(=O)N3CCN(c4ccc(F)cc4)CC3)c(=O)c2c1S(=O)(=O)N1CCC(C)CC1	inactive: -7.63%	–
CSc1ncc(C(=O)NCc2cccc(F)c2)c(-c2ccccc2)n1	inactive: -0.286%	–
CC(C)Oc1ccc(CNC(=O)c2ccc(CN3CC(=O)N4CCCCC4C3=O)cc2)cc1 (stereo not given)	inactive: 10.3%	–
O=C(NCc1cccc(Cl)c1)c1ccc(NC(=O)N2CC3CCCN3c3ccccc32)cc1 (stereo not given)	inactive: -5.82%	–
Oc1c(C(c2ccc(Cl)cc2Cl)N2CCN(c3ccccc3)CC2)sc2nc(-c3ccco3)nn12 (stereo not given)	inactive: -6.14%	–
O=C(CCS(=O)(=O)c1cc2c(cc1Cl)NC(=O)CO2)NCc1ccccc1Cl	inactive: 2.18%	–
COc1ccc(CN(Cc2ccco2)c2cnc(S(C)(=O)=O)nc2C(=O)Nc2ccc(C)c(Cl)c2)cc1	inactive: -1.01%	–
O=c1c2oc3ccccc3c2n(Cc2ccccc2Cl)c(=O)n1Cc1ccco1	inactive: -5.41%	–
CCCc1nc(SC)ncc1C(=O)N1CCN(c2ccc(Cl)cc2)CC1	inactive: 6.17%	–
CC(C)Oc1ccc(C(=O)N2CCN(CCc3ccccn3)CC2)cc1	inactive: 5.72%	–
O=C(NCCc1ccccc1)C1CCC(CNS(=O)(=O)c2ccccc2)CC1 (stereo not given)	inactive: -6.22%	–

SMILES	activity change, negative = inhibition	outcome
Cc1ccc(NC(=O)c2cnn3c(C(F)F)cc(-c4ccccc4)nc23)cc1F	inactive: 10.2%	–
CCCn1c(SCc2nc(-c3ccc(OC)c(OC)c3)no2)nnc1-c1ccccc1	–	inactive
CCOc1ccc(NC(=O)NCCc2c(C)nn(C)c2C)cc1	inactive: 9.87%	–
COc1ccc(OC)c(CNC(=O)c2ccc(-c3nc(CSc4ccccc4)c(C)o3)cc2)c1	–	inactive
CC1CCc2nn(CC(=O)Nc3ccccc3Cl)cc2C1 (stereo not given)	inactive: -2.96%	–
CCc1ccc(-c2nc3c(c(SCc4ccccc4F)n2)Cc2c(CO)cnc(C)c2O3)cc1	inactive: 4.79%	–
Cc1cccc(N2CCN(C(=O)CN3CCSc4ccccc43)CC2C)c1 (stereo not given)	inactive: 9.17%	–
Cc1ccc(NC(=O)C(C)Sc2nc(=O)cc(N)n2-c2cccc(C)c2)cc1 (stereo not given)	inactive: 16.3%	–
Cc1c(C2=CCN(S(=O)(=O)c3cccc(Cl)c3)CC2)c2ccccc2n1CC(=O)N1CCCC1	–	inactive
CN(Cc1ccccc1)S(=O)(=O)c1ccc(-c2cnc(C3CC3)o2)cc1	–	inactive
COc1cccc(S(=O)(=O)N2CCN(Cc3ccc4c(c3)OCO4)CC2)c1	inactive: 3.82%	–
COc1ccc(NC(=O)C(=O)NCC(c2cccnc2)N2CCc3ccccc32)cc1OC (stereo not given)	inactive: -12.7%	–
O=C(C1CCCN(S(=O)(=O)c2ccc(Br)s2)C1)N1CCN(c2cccc(Cl)c2)CC1 (stereo not given)	inactive: 1.24%	–
Cc1ccccc1OCC(=O)Nc1ccc2nc(SCC(=O)N3CCc4ccccc43)sc2c1	inactive: 2.55%	–
Cc1cccc(N2CCN(S(=O)(=O)c3ccc(-c4cc(C(F)(F)F)on4)s3)CC2)c1C	–	inactive
COc1ccc(OCC(=O)Nc2cc(-c3nc4ccccc4s3)ccc2C)cc1	inactive: -2.4%	–
COc1ccc2c(c1)c1c(c(=O)n(-c3ccc(C)cc3)c(=O)n1CC(=O)NCc1ccc(C)cc1)n2C	inactive: -2.6%	–
COc1ccc(Cl)cc1NC(=O)c1nnn(Cc2cccc(C(F)(F)F)c2)c1N	inactive: 5.69%	–
Cc1ccc(CNc2ncnc3c2cnn3-c2ccc(Cl)cc2)cc1	inactive: -14.2%	–
COc1cccc(CC(=O)Nc2ccc(-c3nc4ccccc4s3)cc2)c1	–	inactive

SMILES	activity change, negative = inhibition	outcome
COc1ccccc1C1Nc2c(sc3nc(C)cc(C)c23)C(=O)N1c1ccccc1 (stereo not given)	inactive: 18.8%	–
COc1cccc(C2C(C(=O)Nc3ccc(Cl)cc3)=C(C)Nc3nc4ccccc4n32)c1 (stereo not given)	inactive: 8.31%	–
CCC(C)Sc1oc(-c2ccco2)nc1S(=O)(=O)c1ccc(C)cc1 (stereo not given)	inactive: -9.91%	–
CCN(CC)c1ccc(NC(=O)CCc2nc3cccnc3n2Cc2cccs2)c(C)c1	inactive: -10.3%	–
O=C(NCC(c1ccc2c(c1)OCO2)N1CCOCC1)C(=O)Nc1ccccc1 (stereo not given)	inactive: 5.99%	–
C=CCc1cccc2cc(C(=O)NCCc3c(C)[nH]c4c(C)cccc34)c(=O)oc12	inactive: 17.2%	–
NS(=O)(=O)c1ccc(CCNC(=O)Cn2c(-c3cccs3)cc3ccccc32)cc1	inactive: -10.5%	–
Cc1cc2c(cc1C)NC(CC(=O)Nc1cccc(Cl)c1)C(=O)N2 (stereo not given)	–	inactive
Cc1ccccc1NC(=O)c1ccc2c(O)c(S(=O)(=O)c3ccccc3)c(=O)[nH]c2c1	inactive: 0.184%	–
O=C(Cn1c(=O)c(C(F)(F)F)nc2ccccc21)Nc1cccc(Br)c1	–	inactive
CCCN1C(C(=O)c2ccccc2)=C(OC(=O)c2ccc(OC)cc2)c2ccccc2S1(=O)=O	–	inactive
CN(Cc1ccc(F)cc1)S(=O)(=O)c1nnc(NC(=O)c2ccccc2Cl)s1	inactive: 11.3%	–
CCc1nc(-c2cc(S(=O)(=O)N3CCN(c4ccccc4F)CC3)ccc2OC)no1	inactive: -1.48%	–
Cn1nnnc1SCCCNCc1ccc(-c2ccc(F)c(Cl)c2)o1	inactive: -4.18%	–
Cc1ccc(S(=O)(=O)Nc2cc3c(cc2C)n(C)c(=O)c(=O)n3C)c(C)c1	inactive: 1.61%	–
Cc1cc(C)cc(Nc2cc(C(=O)NC3CCC(C)CC3)c3ccccc3n2)c1 (stereo not given)	inactive: 24%	–
COc1ccc(CCNC(=O)c2c(C)oc3ncnc(N4CCOCC4)c23)c(OC)c1	inactive: -18.9%	–
Cc1cc(C)cc(NS(=O)(=O)c2ccc(N3CCCCS3(=O)=O)cc2)c1	inactive: 3.41%	–
Cc1cc(=O)n(CC(=O)NCc2ccc(OC(C)C)cc2)c2c1c(C)nn2-c1cccc(F)c1	inactive: -6.03%	–
CCc1ccc(NC(=O)CN2C(=O)CCSc3ccccc32)cc1	inactive: 9.32%	–
